# Data from the supplement of paper PMC12217912.
# The other results are listed elsewhere or left out. The full chains were built here from the parent and the listed change. Values near 0.05 are background.
# B1: TEV protease; numbered along this chain (parent)
# chain: MGESLFKGPRDYNPISSSICHLTNESDGHTTSLYGIGFGPFIITNKHLFRRNNGTLVVQSLHGVFKVKDTTTLQQHLVDGRDMIIIRMPKDFPPFPQKLKFREPQREERICLVTTNFQTKSMSSMVSDTSCTFPSGDGIFWKHWIQTKDGQCGSPLVSTRDGFIVGIHSASNFTNTNNYFTSVPKNFMELLTNQEAQQWVSGWRLNADSVLWGGHKVFMVKPEEPFQPVKEATQL
# Variants of: B1
# Assay: raw area under fraction-flipped curve 0-4 h after induction (AUC4h, not background-subtracted), DNA-recorder readout of cleavage of the substrate (dimensionless); higher = more cleavage of the substrate by the protease variant
# Details: temperature: 34 °C; time window: 0-4 h after rhamnose induction
# Procedure: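 In vivo DNA recorder in E. coli TOP10(DE3) ΔrhaA at 34 °C. Each TEVp single-site mutant (parent TEVp 0) is paired with a single-site variant of the 7-mer TEVs (canonical ENLYFQ|S). The substrate sits between flexible linkers in a Bxb1-sfGFP-TEVs-SsrA fusion, so cleavage stabilises Bxb1 and speeds flipping of a recombination array, read by NGS. The value is the raw area under the fraction-flipped curve over 0-4 h after rhamnose induction (AUC4h), with ≥20 reads per time point. It is not background-subtracted; inactive controls average about 0.047.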
# 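Also: Bxb1 expression induced with 0.2% (w/v) L-rhamnose at OD600 near 0.5, cultures sampled hourly, flipped fraction per protease–substrate barcode pair counted by paired-end Illumina sequencing.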
Variant,area with substrate ENLYDQS,area with substrate ENLYEQS,area with substrate ENLYGQS,area with substrate ENLYHQS,area with substrate ENLYIQS,area with substrate ENLYKQS,area with substrate ENLYNQS,area with substrate ENLYPQS,area with substrate ENLYQQS,area with substrate ENLYRQS,area with substrate ENLYTQS,area with substrate ENLYVQS,area with substrate ENLYWQS,area with substrate ENLYMQS,area with substrate ENLYYQS,area with substrate ENLYSQS,area with substrate ENLYLQS
MGESLFKGPRDYNPISSSICHLTNESDGHTTSLYGIGFGPFIITNKHLFRRNNGTLVVQSLHGVFKVKDTTTLQQHLVDGRDMIIIRMPKDFPPFPQKLKFREPQREERICLVTTNFQTKSMSSMVSDTSCTFPSGDGIFWKHWIQTKDGQCGSPLVSTRDYFIVGIHSASNFTNTNNYFTSVPKNFMELLTNQEAQQWVSGWRLNADSVLWGGHKVFMVKPEEPFQPVKEATQL [G162Y],0.0432,0.0965,0.0684,0.0697,0.106,0.0588,0.0714,0.0733,0.0773,0.0644,0.0667,0.0722,,,,,
MGESLFKGPRDYNPISSSICHLTNESDGHTTSLYGIGFGPFIITNKHLFRRNNGTLVVQSLHGVFKVKDTTTLQQHLVDGRDMIIIRMPKDFPPFPQKLKFREPQREERICLVTTNFQTKSMSSMVSDTSCTFPSGDGIFWKHWIQTKDGQCGSPLVSTRDGFIVGMHSASNFTNTNNYFTSVPKNFMELLTNQEAQQWVSGWRLNADSVLWGGHKVFMVKPEEPFQPVKEATQL [I167M],0.0566,0.0539,0.0633,0.0409,0.0962,0.0772,,,,0.0552,0.0808,,0.102,,,,
MGESLFKGPRDYNPISSSICHLTNESDGHTTSLYGIGFGPFIITNKHLFRRNNGTLVVQSLHGVFKVKDTTTLQQHLVDGRDMIIIRMPKDFPPFPQKLKFREPQREERICLVTTNFQTKSMSSMVSDTSCTFPSGDGIFWKHWIQTKDGQCGSPLVSTRDGFIVGIHSASDFTNTNNYFTSVPKNFMELLTNQEAQQWVSGWRLNADSVLWGGHKVFMVKPEEPFQPVKEATQL [N172D],0.0513,0.0651,,0.0556,,,0.0718,0.0707,,0.0696,,0.108,0.0359,0.0531,0.0574,,
MGESLFKGPRDYNPISSSICHLTNESDGHTTSLYGIGFGPFIITNKHLFRRNNGTLVVQSLHGVFKVKDTTTLQQHLVDGRDMIIIRMPKDFPPFPQKLKFREPQREERICLVTTNFQTKSMSSMVSDTSCTFPSGDGIFWKHWIQTKDGQCGSPLVSTRDGFIVGIHSLSNFTNTNNYFTSVPKNFMELLTNQEAQQWVSGWRLNADSVLWGGHKVFMVKPEEPFQPVKEATQL [A170L],0.0573,0.0538,,0.0601,,0.0608,,,0.0616,0.0602,,,,,,0.0306,
MGESLFKGPRDYNPISSSICHLTNESDGHTTSLYGIGFGPFIITNKHLFRRNNGTLVVQSLHGVFKVKDTTTLQQHLVDGRDMIIIRMPKDFPPFPQKLKFREPQREERICLVTTNFQTKSMSSMVSDTSCTFPSGDGIFWKHWIQTKDGQCGSPLVSTRDGFIVGIHSPSNFTNTNNYFTSVPKNFMELLTNQEAQQWVSGWRLNADSVLWGGHKVFMVKPEEPFQPVKEATQL [A170P],0.048,,,0.0706,,,,,0.0501,,,0.0485,,,,0.0686,
MGESLFKGPRDYNPISSSICHLTNESDGHTTSLYGIGFGPFIITNKHLFRRNNGTLVVQSLHGVFKVKDTTTLQQHLVDGRDMIIIRMPKDFPPFPQKLKFREPQREERICLVTTNFQTKSMSSMVSDTSCTFPSGDGIFWKHWIQTKDGQCGSPAVSTRDGFIVGIHSASNFTNTNNYFTSVPKNFMELLTNQEAQQWVSGWRLNADSVLWGGHKVFMVKPEEPFQPVKEATQL [L156A],0.0531,0.0679,0.0534,0.0623,0.1,0.0728,0.0788,0.0713,0.0638,0.0757,0.07,0.123,,0.0863,,,
MGESLFKGPRDYNPISSSICHLTNESDGHTTSLYGIGFGPFIITNKHLFRRNNGTLVVQSLHGVFKVKDTTTLQQHLVDGRDMIIIRMPKDFPPFPQKLKFREPQREERICLVTTNFQTKSMSSMVSDTSCTFPSGDGIFWKHWIQTKDGQCGSPLVSTRDGFIVGIHSASNFTNTFNYFTSVPKNFMELLTNQEAQQWVSGWRLNADSVLWGGHKVFMVKPEEPFQPVKEATQL [N177F],0.0499,0.062,0.0628,0.0806,0.0665,0.0657,0.0564,0.0738,0.0581,0.0559,,0.111,0.0647,0.0563,0.0887,0.07,0.0708
MGESLFKGPRDYNPISSSICHLTNESDGHTTSLYGIGFGPFIITNKHLFRRNNGTLVVQSLHGVFKVKDTTTLQQHLVDGRDMIIIRMPKDFPPFPQKLKFREPQREERICLVTTNFQTKSMSSMVSDTSCTFPSGDGIFWKHWIQTKDGQCGSPLVSTRDGFIVGIHSASNFTNTWNYFTSVPKNFMELLTNQEAQQWVSGWRLNADSVLWGGHKVFMVKPEEPFQPVKEATQL [N177W],0.0589,,0.074,0.0496,,0.0603,0.0486,0.0669,,,0.0574,0.0567,,0.0718,,,
MGESLFKGPRDYNPISSSICHLTNESDGHTTSLYGIGFGPFIITNKHLFRRNNGTLVVQSLHGVFKVKDTTTLQQHLVDGRDMIIIRMPKDFPPFPQKLKFREPQREERICLVTTNFQTKSMSSMVSDTSCTFPSGDGIFWKHWIQTKDMQCGSPLVSTRDGFIVGIHSASNFTNTNNYFTSVPKNFMELLTNQEAQQWVSGWRLNADSVLWGGHKVFMVKPEEPFQPVKEATQL [G150M],0.069,0.0599,,0.0438,0.0501,0.059,0.0476,0.0565,,0.065,,0.062,0.0659,0.0321,,,
MGESLFKGPRDYNPISSSICHLTNESDGHTTSLYGIGFGPFIITNKHLFRRNNGTLVVQSLHGVFKVKDTTTLQQHLVDGRDMIIIRMPKDFPPFPQKLKFREPQREERICLVTTNFQTKSMSSMVSDTSCTFPSGDGIFWKHWIQTKDGQCGSPLVSTRDGFIVGIHSASNKTNTNNYFTSVPKNFMELLTNQEAQQWVSGWRLNADSVLWGGHKVFMVKPEEPFQPVKEATQL [F173K],0.0849,,0.0779,,0.0727,,0.0626,0.0783,,,,,,0.0777,,0.0663,
